# ± gives the standard deviation of the averaged measurements. The list shows a part of the results.
# Test system: PfAP2-I AP2 domain 3 (GST-tagged)
# Assay: gcPBM binding intensity (ln(normalized median fluorescence intensity)); higher = stronger DNA binding
# Procedure, shortened: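 For binding intensity, the highest Masliner-normalised natural-log median intensity across replicate spots of either probe orientation was taken. Protein bound to the array was stained with Alexa488 anti-GST antibody and scanned at 488 nm. The protein, GST-tagged P. falciparum DNA-binding domains from E. coli at about 25 μg on average, had been applied for 1 h to an Agilent 4 × 180k array of primer-extended double-stranded 36-bp intergenic genomic probes and negative controls.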
row,Sequence,gcPBM binding intensity (ln)
1,CACTCCATATTATACACACACACAAATGAAAAAAAT [CACACA_site3019],8.14 ± 0.38
2,ATATCGGGTGCATTAACACACATTTATTTGAATAAA [CACACA_site2350],11.7 ± 0.79
3,TAAAATATAATAAAATGTACACGCATGCAATAGAAT [XGTACX_site7434],8.54 ± 0.64
4,GCTTCTTAGTATACTTTATAAAATATATATTAAATA [XGTACX_negctrl_site57],8.09 ± 0.48
5,ATATATCATAATAGAGGTACACATATTATATATATA [XGTACX_site782],8.55 ± 0.33
6,TTTATAAATATATATACACACACATATATATTATAT [CACACA_site8099],7.66 ± 0.45
7,ATATTAAATATAATTTGTACGCATTTTTTTTTTTTT [XGTACX_site1910],8 ± 0.057
8,TTCCCTTTTTTTATTTGTACTTATCTTTTAAATAAT [XGTACX_site2497],8.21 ± 0.49
9,AATTATAATTAATAGAGTACTGAATATATATATATA [XGTACX_site8683],9.23 ± 0.2
10,AGCATTTTTCATTTTGCACACATGTTTTATGTGTAT [CACACA_site3454],9.4 ± 0.33
11,TTAAAAATATATGAATGTACATATATTTATATATAT [XGTACX_site77],8.04 ± 0.68
12,TACTTACCAAAATACACACACACACCCAATATATAA [CACACA_site1871],8.04 ± 0.39
13,TTTTTTTTATTAGTGTGTACGCATTTATTTATACAT [XGTACX_site1599],8.45 ± 0.43
14,TTTAAATTATGAAATTGTACATATAAAAATATTTTA [XGTACX_site4796],7.86 ± 0.15
15,TATATATTATTTAAAACACACAAAAAAAAAAATTAT [CACACA_site89],7.84 ± 0.62
16,TATATTGAATGCAAAAGTACATTTGTGTAAATTTAT [XGTACX_site7611],8 ± 0.48
17,TTTTTGTATTCTACCTTAACAATCTTAAAGATTTTT [CACACA_negctrl_site1157],7.86 ± 0.76
18,TTTTTTTTTTTAAAATGTACACGTAATTACATATAT [XGTACX_site752],7.99 ± 0.67
19,TGATGGTTACGTTTATGTACACATTACAGTTAGTAT [XGTACX_site998],7.79 ± 0.52
20,AAAATATATTAAGGCACACACATACATATATATATA [CACACA_site3723],10.1 ± 0.4
21,GAGTTAATATTTAAAAGTACAAGATGAATGTAAAAA [XGTACX_site5810],8.01 ± 0.57
22,ACTACATTATTGCATTGTACTTTTTTTTTTTTTTTA [XGTACX_site4605],8.22 ± 0.56

row,Sequence,gcPBM binding intensity (ln)
1,TAAAATATATATATGTGTACATAACATATAATTTTT [XGTACX_site1725],7.61 ± 0.11
2,TTATTTAGTATATTATGTACATACAATGCCTGGGAA [XGTACX_site4578],8.1 ± 0.51
3,TATTGTTGTTCATGTACACACTATAATAAAAGCAAT [CACACA_site6148],8.2 ± 0.42
4,AGTATAAAAATATATTTACACACTATATATATCGAA [CACACA_site8494],7.78 ± 0.46
5,ATATGTTACAGACACACACACACATAAAAAAACAAA [CACACA_site3248],8.01 ± 0.44
6,TTTTCATATTATAGTGCACACAAAAATATATATATG [CACACA_site8929],11.5 ± 0.47
7,ATATATATATATATATGTACATATTGTATTAATTAT [XGTACX_site1919],9.31 ± 0.11
8,CTCTGTTGTCTTAGTTGTACAATAGAAAAAAATAAT [XGTACX_site7043],8.38 ± 0.18
9,TCTTTTAAACAGTACACACACACATCTATATTTATA [CACACA_site6559],8.2 ± 0.32
10,TTTTTTACTTTTGAGACATTTCATATTTTTATTCAC [GTGCAC_negctrl_site730],7.73 ± 0.71
11,TACAGGAATATTTTTACACACTAAAAATTATAAAAT [CACACA_site1649],7.67 ± 0.68
12,TGATTGAGTAAAATGGGTACATATACACTATTACAT [XGTACX_site5232],7.82 ± 0.57
13,AAAGGTTCACATTATATAGTTATGTAATATATATGT [CACACA_negctrl_site542],7.63 ± 0.67
14,ATATTGTATTTATGTACACACATTTTTGGAATATGA [CACACA_site4861],8.06 ± 0.28
15,TTTTTTCTCTGTGGCTGTACTTTGAAGATATTTTAT [XGTACX_site8243],8.11 ± 0.58
16,TGTTTATTTTTAAAAAGTACATATATAAAAAATATC [XGTACX_site4902],7.89 ± 0.28
17,ATAATTTGGAAACACACACACACACCCACATATATA [CACACA_site2286],8.34 ± 0.2
18,TTAAATGAAAAATGGGGTACATATATACAAATATAT [XGTACX_site5931],8.1 ± 0.38
19,AAAAAAAAATACTACTGTACTTTTTTTGGACATCTA [XGTACX_site1096],7.73 ± 0.057
20,TGATTATACGCACGCGCACACACAACCAAAAAAAAA [CACACA_site3537],9.36 ± 0.18
21,AAAAAAGGAAAAGATACACACCGTAAATTAAAATTT [CACACA_site5908],7.54 ± 0.62
22,GAAGGAATATACAATTGTACTTGGCAAAAAAAAAAA [XGTACX_site1884],8.24 ± 0.86

row,Sequence,gcPBM binding intensity (ln)
1,ATATATTTATATATTACACACAATATTGTACAGATA [CACACA_site8215],7.97 ± 0.4
2,AAATACTTGTCATATTGTACATGTTTGTGATATATA [XGTACX_site3185],7.64 ± 0.35
3,GTTAAGAATATATAATGTACTTATTTTAATATAGTA [XGTACX_site6088],7.58 ± 0.3
4,AATAATCTATATTGTACACACAAAATGGGAAAAAAA [CACACA_site6969],8.11 ± 0.73
5,AATTAGATTTACTGAAGTACTTAATTTATTTTATTA [XGTACX_site3407],7.42 ± 0.68
6,AGGTACTTTTTTAAAACACACATATAACATATACAC [CACACA_site6629],8.29 ± 0.34
7,ACCCCCAATACGGAAACACACAAGTTATTTTATCAT [CACACA_site8874],8.87 ± 0.67
8,ATATAAAATAATAAGGGTACAGGTCTCTGCGATGTT [XGTACX_site786],7.75 ± 0.73
9,TAAAATATTGTTATTACATGCAACCTTATGAAAAAT [TGCATGCA_site706],7.78 ± 0.55
10,ACTCGCATATTTAAATGTACTTAATTAGAAGAAAAA [XGTACX_site3304],8.03 ± 0.33
11,AGAATTTTAGATTTAGCACACATTTTTTTTTTTTTT [CACACA_site4081],8.34 ± 0.45
12,AACAAGAAATAATCACGTACACATTATAATAACTAA [XGTACX_site8184],7.92 ± 0.42
13,CTTTAATATTTTATTTCACACACATAAATGCCCCAA [CACACA_site8569],8.9 ± 0.12
14,AAAATTAAAATAGTAATACACACTTCATAGGAAATG [CACACA_site1762],7.47 ± 0.71
15,AAAAAAAAAAAAAAAAAAAAAAAAAAAAGTTAAAAA [TGCATGCA_negctrl_site74],9.95 ± 0.042
16,AAAAAAAAAGATCACACACACATAAATATAAACAAA [CACACA_site5285],7.73 ± 0.55
17,TGATATTATTATAAGGTGCTTAAAAATAAAGATAAT [GTGCAC_site9539],10.1 ± 0.26
18,TTTAAAAATTTGATCAAACACACGTTGCATAAATTA [CACACA_site3945],8.12 ± 0.52
19,ATAATATAAACATACACACACACATATATATATATA [CACACA_site5591],9.21 ± 0.38
20,ATAAATTGTAAAATGTGTACGCAGATATTGCGTATT [XGTACX_site332],8.08 ± 0.44
21,TCTATATAATACCAATGTACATAGTTTTAAGCATAA [XGTACX_site1889],7.68 ± 0.47
22,AGGATATGCAGACACACACACATATAGATTTATATA [CACACA_site7100],7.74 ± 0.55

row,Sequence,gcPBM binding intensity (ln)
1,AAAACAAAAATATAAACACACATACATTGGTTTTCT [CACACA_site5405],7.84 ± 0.9
2,TTTTGTCTTCAAATCAAATGTATATAAAAAAAATAC [CACACA_negctrl_site1717],7.74 ± 0.45
3,AACTTGTGTGGATATTGTACTAACAATATGTATGAT [XGTACX_site6302],8.23 ± 0.42
4,AATAGTGTATAAATTTGTACATATAATTAAAAGGAA [XGTACX_site1143],8.01 ± 0.59
5,ATTCATAAAAAGAGGTGTACATTAATATAATATATA [XGTACX_site8283],7.87 ± 0.27
6,TTATTCGAACAAAGGAAAAAATATATTCAAAGGAAA [TGCATGCA_negctrl_site215],7.46 ± 0.63
7,AATAACTTTTTGAGATGTACATTTTTAATTCGTAGA [XGTACX_site8455],7.61 ± 0.44
8,TTTTTAACTAACATATCAATTCCATACGTCGTCAAA [CACACA_negctrl_site560],7.61 ± 0.64
9,ACTTTAATAATTCACTTATTTTCTTATTATATTATT [CACACA_negctrl_site556],7.97 ± 0.65
10,GGATTTATTTTATATACACACATACCTATATTTATA [CACACA_site7084],7.79 ± 0.64
11,ATATAAATAAAAAAAAAAAAAAAAAAAAAAAAAAAA [CACACA_negctrl_site972],8.27 ± 0.89
12,TATGCTACATTATATGTACACACATATACATATATA [CACACA_site8199],7.86 ± 0.23
13,ATTTATACGTAATATGCATAAATATAAATATATATA [XGTACX_negctrl_site133],8.04 ± 0.56
14,TTTCTTTCTTTCTTTTTTTAAATATTTTTTAAAAAT [TGCATGCA_negctrl_site206],7.98 ± 0.62
15,TTAAAATTTTAAAAATTTTAATTTTACAAAAAAAAT [TGCATGCA_negctrl_site227],7.38 ± 0.58
16,AAATTAATGAAATATACACACATATATAAATATATA [CACACA_site4378],7.33 ± 0.52
17,AAATTAAAGATAAAAGTGCAAAATTATAAATTTATT,9.64 ± 0.071
18,TATATATAACATTGTACACACAAAGAAATAATATTA [CACACA_site3035],7.96 ± 0.3
19,AAAAGTATATATTCAGTGCATAGTCTTTAAATATAA [GTGCAC_site9522],9.19 ± 0.28
20,ATAAGCATCTGGATATGTACTTATTCCTTTAAAGAT [XGTACX_site6225],7.62 ± 0.36
21,AACAAGTTGCATGGTGCACACATGTATTTATATCTA [CACACA_site5414],10.6 ± 0.11
22,TATTAAAAATATTATGTACACACATTTTAGATATTT [CACACA_site8549],7.75 ± 0.23

# Reference: the supplement of paper PMC11417369
